# Results reported in the supplement of paper PMC8728848.
# The other results are listed elsewhere or left out.
# Legend:
# Test in all cases: glycan array binding signal (z-score within array); higher = stronger binding
# Conditions in all cases: glycan notation: IUPAC condensed, linker removed
# [1] = biological target: Fuc(a1-2)[Gal(a1-3)]Gal(b1-4)GlcNAc(b1-2)Man(a1-3)[Fuc(a1-2)[Gal(a1-3)]Gal(b1-4)GlcNAc(b1-2)Man(a1-6)]Man(b1-4)GlcNAc(b1-4)[Fuc(a1-6)]GlcNAc
# Summary of the method: (§1)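 Negative Z-scores can be read as non-binding. The Z-score is calculated within each array and then averaged across arrays of one protein sequence at different concentrations or buffers and across linkers. Arrays, 3228 in all, were curated from the Consortium for Functional Glycomics database and kept only where the protein sequence was available.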
# [2] = biological target: Fuc(a1-2)[Gal(a1-3)]Gal(b1-4)GlcNAc(b1-3)GalNAc
# Summary of the method: as §1
# [3] = biological target: Fuc(a1-2)[Gal(a1-3)]Gal(b1-4)GlcNAc(b1-3)[Fuc(a1-2)[Gal(a1-3)]Gal(b1-4)GlcNAc(b1-6)]GalNAc
# Summary of the method: as §1
# [4] = biological target: Fuc(a1-2)[Gal(a1-3)]Gal(b1-4)GlcNAc(b1-6)GalNAc
# Summary of the method: as §1
# [5] = biological target: Fuc(a1-2)[Gal(a1-3)]Gal(b1-4)[Fuc(a1-3)]Glc
# Summary of the method: as §1
# [6] = biological target: Fuc(a1-2)[Gal(a1-3)]Gal(b1-4)[Fuc(a1-3)]GlcNAc
# Summary of the method: as §1
# [7] = biological target: Fuc(a1-2)[Gal(a1-3)]Gal(b1-4)[Fuc(a1-3)]GlcNAc(b1-3)GalNAc
# Summary of the method: as §1
# [8] = biological target: Fuc(a1-2)[Gal(a1-4)]Gal(b1-4)GlcNAc
# Summary of the method: as §1
# [9] = biological target: Fuc(a1-2)[GalNAc(a1-3)]Gal
# Summary of the method: as §1
# [10] = biological target: Fuc(a1-2)[GalNAc(a1-3)]Gal(b1-3)GalNAc(a1-3)[Fuc(a1-2)]Gal(b1-4)GlcNAc
# Summary of the method: as §1
# [11] = biological target: Fuc(a1-2)[GalNAc(a1-3)]Gal(b1-3)GalNAc(b1-3)Gal(a1-4)Gal(b1-4)Glc
# Summary of the method: as §1
# [12] = biological target: Fuc(a1-2)[GalNAc(a1-3)]Gal(b1-3)GlcNAc
# Summary of the method: as §1
# [13] = biological target: Fuc(a1-2)[GalNAc(a1-3)]Gal(b1-3)GlcNAc(b1-2)Man(a1-3)[Fuc(a1-2)[GalNAc(a1-3)]Gal(b1-3)GlcNAc(b1-2)Man(a1-6)]Man(b1-4)GlcNAc(b1-4)GlcNAc
# Summary of the method: as §1
# [14] = biological target: Fuc(a1-2)[GalNAc(a1-3)]Gal(b1-3)GlcNAc(b1-2)Man(a1-3)[Fuc(a1-2)[GalNAc(a1-3)]Gal(b1-3)GlcNAc(b1-2)Man(a1-6)]Man(b1-4)GlcNAc(b1-4)[Fuc(a1-6)]GlcNAc
# Summary of the method: as §1
# [15] = biological target: Fuc(a1-2)[GalNAc(a1-3)]Gal(b1-3)GlcNAc(b1-3)GalNAc
# Summary of the method: as §1
# [16] = biological target: Fuc(a1-2)[GalNAc(a1-3)]Gal(b1-3)GlcNAc(b1-6)GalNAc
# Summary of the method: as §1
# [17] = biological target: Fuc(a1-2)[GalNAc(a1-3)]Gal(b1-4)Glc
# Summary of the method: as §1
# [18] = biological target: Fuc(a1-2)[GalNAc(a1-3)]Gal(b1-4)GlcNAc
# Summary of the method: as §1
# [19] = biological target: Fuc(a1-2)[GalNAc(a1-3)]Gal(b1-4)GlcNAc(b1-2)Man
# Summary of the method: as §1
# [20] = biological target: Fuc(a1-2)[GalNAc(a1-3)]Gal(b1-4)GlcNAc(b1-2)Man(a1-3)[Fuc(a1-2)[GalNAc(a1-3)]Gal(b1-4)GlcNAc(b1-2)Man(a1-6)]Man(b1-4)GlcNAc(b1-4)GlcNAc
# Summary of the method: as §1
# [21] = biological target: Fuc(a1-2)[GalNAc(a1-3)]Gal(b1-4)GlcNAc(b1-2)Man(a1-3)[Fuc(a1-2)[GalNAc(a1-3)]Gal(b1-4)GlcNAc(b1-2)Man(a1-6)]Man(b1-4)GlcNAc(b1-4)[Fuc(a1-6)]GlcNAc
# Summary of the method: as §1
# [22] = biological target: Fuc(a1-2)[GalNAc(a1-3)]Gal(b1-4)GlcNAc(b1-3)Gal(b1-4)GlcNAc
# Summary of the method: as §1
# [23] = biological target: Fuc(a1-2)[GalNAc(a1-3)]Gal(b1-4)GlcNAc(b1-3)Gal(b1-4)GlcNAc(b1-3)Gal(b1-4)GlcNAc
# Summary of the method: as §1
# [24] = biological target: Fuc(a1-2)[GalNAc(a1-3)]Gal(b1-4)GlcNAc(b1-3)GalNAc
# Summary of the method: as §1
# [25] = biological target: Fuc(a1-2)[GalNAc(a1-3)]Gal(b1-4)GlcNAc(b1-3)[Fuc(a1-2)[GalNAc(a1-3)]Gal(b1-4)GlcNAc(b1-6)]GalNAc
# Summary of the method: as §1
# [26] = biological target: Fuc(a1-2)[GalNAc(a1-3)]Gal(b1-4)GlcNAc(b1-6)GalNAc
# Summary of the method: as §1
# [27] = biological target: Fuc(a1-2)[GalNAc(a1-3)]Gal(b1-4)[Fuc(a1-3)]GlcNAc
# Summary of the method: as §1
# [28] = biological target: Fuc(a1-2)[GalNAc(a1-3)]Gal(b1-4)[Fuc(a1-3)]GlcNAc(b1-3)GalNAc
# Summary of the method: as §1
# [29] = biological target: Fuc(a1-2)[GalNAc(a1-4)]Gal(b1-4)GlcNAc
# Summary of the method: as §1
# [30] = biological target: Fuc(a1-2)[GalNAc(b1-3)]Gal
# Summary of the method: as §1
# [31] = biological target: Fuc(a1-3)GlcNAc
# Summary of the method: as §1
# [32] = biological target: Fuc(a1-3)[Gal(b1-4)]Glc6S
# Summary of the method: as §1
# [33] = biological target: Fuc(a1-3)[Gal(b1-4)]GlcNAc
# Summary of the method: as §1
# [34] = biological target: Fuc(a1-3)[Gal(b1-4)]GlcNAc(b1-2)Man
# Summary of the method: as §1
# [35] = biological target: Fuc(a1-3)[Gal(b1-4)]GlcNAc(b1-2)Man(a1-3)[Fuc(a1-3)[Gal(b1-4)]GlcNAc(b1-2)Man(a1-6)]Man(b1-4)GlcNAc(b1-4)GlcNAc
# Summary of the method: as §1
# [36] = biological target: Fuc(a1-3)[Gal(b1-4)]GlcNAc(b1-2)Man(a1-3)[Fuc(a1-3)[Gal(b1-4)]GlcNAc(b1-2)Man(a1-6)]Man(b1-4)GlcNAc(b1-4)[Fuc(a1-6)]GlcNAc
# Summary of the method: as §1
# [37] = biological target: Fuc(a1-3)[Gal(b1-4)]GlcNAc(b1-3)Gal(b1-3)[Fuc(a1-4)]GlcNAc
# Summary of the method: as §1
binder,measurement,setting,value
Si Bti9 1b-HA (Solanum lycopersicum) (protein) MFESRPRSVLSLGVFVILVYLSSVPLPVNSQCNRGCDLALASFYVWRGSNLTLISEMFSTSIADIVSYNNRDNIPNQDSVIAGTRINIPFRCDCLNDGEVLGHAFPYRVKSGDTYDLVARNYSDLTTAQWMMKFNSYPENNIPNTVNLSVVVNCSCGNSDVSKDFGLFVTYPVRAEDNLTSVASAANVSEDIIRRYNPAAVSILDIGQGIIYIPGRDRNGNFPPLPTSTDGLSGGAKAPLFFNPAFLYKVVELKLAGRSRTSGYPYDVPDYAGYPYDVPDYALEVLFQ,glycan array binding signal (z-score),[1],-0.133
same,glycan array binding signal (z-score),[2],-0.283
same,glycan array binding signal (z-score),[3],0.16
same,glycan array binding signal (z-score),[4],0.313
same,glycan array binding signal (z-score),[5],-0.449
same,glycan array binding signal (z-score),[6],-0.28
same,glycan array binding signal (z-score),[7],-0.133
same,glycan array binding signal (z-score),[8],-0.033
same,glycan array binding signal (z-score),[9],-0.349
same,glycan array binding signal (z-score),[10],-0.24
same,glycan array binding signal (z-score),[11],0.063
same,glycan array binding signal (z-score),[12],-0.146
same,glycan array binding signal (z-score),[13],-0.23
same,glycan array binding signal (z-score),[14],0.109
same,glycan array binding signal (z-score),[15],0.101
same,glycan array binding signal (z-score),[16],-0.356
same,glycan array binding signal (z-score),[17],-0.453
same,glycan array binding signal (z-score),[18],-0.426
same,glycan array binding signal (z-score),[19],-0.237
same,glycan array binding signal (z-score),[20],-0.17
same,glycan array binding signal (z-score),[21],0.288
same,glycan array binding signal (z-score),[22],-0.569
same,glycan array binding signal (z-score),[23],-0.298
same,glycan array binding signal (z-score),[24],0.004
same,glycan array binding signal (z-score),[25],-0.137
same,glycan array binding signal (z-score),[26],-0.076
same,glycan array binding signal (z-score),[27],0.334
same,glycan array binding signal (z-score),[28],-0.194
same,glycan array binding signal (z-score),[29],-0.486
same,glycan array binding signal (z-score),[30],-0.405
same,glycan array binding signal (z-score),[31],-0.298
same,glycan array binding signal (z-score),[32],0.17
same,glycan array binding signal (z-score),[33],-0.337
same,glycan array binding signal (z-score),[34],-0.271
same,glycan array binding signal (z-score),[35],-0.379
same,glycan array binding signal (z-score),[36],-0.099
same,glycan array binding signal (z-score),[37],-0.028
